The campaign covered roughly 46,000 compounds. About 60 (0.1%) were called active. Another 3% or so got no clear call; they are omitted. Calls follow the shape of the dose curve; as a rule, active = well fitted inhibition curve with a large enough effect; inconclusive = small, poorly fitted or top-dose-only effect; inactive = no such curve, though single readings can be large or run the other way. This is one part of the list.
Assay: Primary qHTS assay for Inhibitors of ovarian cancer metastasis using an organotypic tumor microenvironment (TME) model. Also: nearly all actives have a fitted effect of over 65% in size.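 As to Potency: count of GFP cancer cells still attached after washing and fixation.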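 As to activity change, negative = inhibition: plate controls were DMSO wells for no effect and tomatine positive control wells for full effect.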
Conditions: SKOV3ip1-GFP adhesion/invasion on 3D omental model, fluorescence; series mostly up to 45.8 µM; activity change, negative = inhibition: at the top concentration
Method in brief: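 Primary human omental fibroblast/mesothelial 3D culture pre-formed 48 h. SKOV3ip1-GFP cells added with compounds (0.36-46 umol/L), incubated 2 h RT/16 h 37 C, fixed; GFP cells quantified at 488/509 nm.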
Potency is read from the fitted curve at half-maximal effect.

Row | SMILES | outcome | activity change, negative = inhibition | Potency
1 | CCOC(=O)c1c(S(=O)(=O)N2CCC(C(=O)NCc3cccc(C)c3)CC2)c(C)n(C)c1C | inactive |  | 
2 | COc1ccc(Cn2c(=O)n(-c3ccc(F)c(Cl)c3)c(=O)c3c2c2cc(OC)ccc2n3C)cc1 | inactive |  | 
3 | COc1ccccc1NC(=O)CSc1nc(O)c(C/C=C/c2ccccc2)c(=O)[nH]1 |  | inactive: -0.243% | 
4 | CCc1nnc(NC(=O)CSc2nccn2Cc2ccc(C)cc2)s1 |  | inactive: -5.13% | 
5 | COc1ccc(CNC(=O)c2nc(SCc3ccc(C)cc3)ncc2Cl)cc1 |  | inactive: -15.9% | 
6 | CCCCc1ccc(NC(=O)c2cc(-c3ccc(C)c(F)c3)on2)cc1 |  | inactive: -1.88% | 
7 | Cc1ccc(NC(=O)CN2C(=O)CCc3ccccc32)cc1C |  | inactive: -11.4% | 
8 | Cc1ccc(OCc2nc(-c3ccc(C(=O)NCCc4ccc(Cl)cc4)cc3)oc2C)cc1 | inactive |  | 
9 | CCc1nn(CC(=O)N2CCN(c3cccc(OC)c3)CC2)c(=O)c2cc3occc3n12 | inactive |  | 
10 | COc1ccc(N2CCN(Cc3nc4c(c(=O)[nH]c(=O)n4C)n3Cc3ccc(C)cc3)CC2)cc1 |  | inactive: 3.01% | 
11 | COc1ccc(N(CC(=O)NC(C)c2ccccc2)S(=O)(=O)c2c(C)nn(C)c2C)cc1 (stereo unspecified) |  | inactive: 6.19% | 
12 | CCOC(=O)c1c(C)[nH]c(C)c1S(=O)(=O)N1CCCC(C(=O)N2CCN(c3ccccc3F)CC2)C1 (stereo unspecified) |  | inactive: -1.82% | 
13 | CC(C)Nc1ccc(-c2nc(-c3ccncc3)no2)cc1[N+](=O)[O-] | inactive |  | 
14 | COc1ccc(C2=C(Nc3ccc(Br)c(C)c3)c3ccccc3C2=O)cc1 |  | inactive: -25.4% | 
15 | COc1ccc(NC(=O)c2nn(C)c3c2CS(=O)(=O)c2ccccc2-3)cc1Cl |  | inactive: 0.163% | 
16 | CC1CCN(CC2CCN(C(=O)NCc3ccc(F)cc3)CC2)CC1 |  | inactive: 5.51% | 
17 | O=C(O)c1ccc(Cn2cnc3cccnc32)cc1 | inactive |  | 
18 | COc1ccc(S(=O)(=O)c2cnc3cc(OC)c(OC)cc3c2N2CCCC(C)C2)cc1 (stereo unspecified) |  | inactive: 4.04% | 
19 | CC1CN(C(=O)CCC(=O)NCc2cccc(Cl)c2)c2ccccc2S1 (stereo unspecified) |  | inactive: 4.05% | 
20 | CCOc1ccc(-c2cn3c(n2)sc2cc(C(=O)NCCc4ccc(OC)cc4OC)ccc23)cc1 | inactive |  | 
21 | O=S(=O)(NCCc1csc2nc(-c3ccccc3)nn12)c1cccs1 |  | inactive: -4.69% | 

Row | SMILES | outcome | activity change, negative = inhibition | Potency
22 | CC(C)CCOc1ccc(C2N=C(N)Nc3nc4ccccc4n32)cc1 (stereo unspecified) |  |  | active: 12.6 µM
23 | CCc1nc(-c2cc(S(=O)(=O)N3CCN(c4ccc(OC)cc4)CC3)ccc2OC)no1 |  | inactive: -2.16% | 
24 | CCc1ccc(OCc2nc(-c3ccc(-n4cccc4)cc3)no2)cc1 |  | inactive: 0.319% | 
25 | Cc1nn(C(C)C(=O)NC2CCC(C)CC2)c(=O)c2c1sc1ccccc12 (stereo unspecified) | inactive |  | 
26 | C=CC(=O)Nc1ccc2ncnc(Nc3ccc(OCc4cccc(F)c4)c(Cl)c3)c2c1 |  | inactive: -28.5% | 
27 | Cc1ccc(/C=C/c2onc(C)c2S(=O)(=O)N2CCC(C(=O)N3CCN(c4cccc(C)c4)C(C)C3)CC2)cc1 (stereo unspecified) | inactive |  | 
28 | CCOc1ccc(C2C(C(=O)Nc3ccccc3)=C(C)Nc3nc(SCc4cccc(OC)c4)nn32)cc1 (stereo unspecified) |  | inactive: -16.7% | 
29 | Cc1ccc(NC(=O)CCc2c(C)nn(-c3ccc(N4CCOCC4)nn3)c2C)c(C)c1 | inactive |  | 
30 | O=C(COc1ccccc1Cl)Nc1nnc(S(=O)(=O)N2CCCC2)s1 |  | inactive: -8.74% | 
31 | COc1ccc(-n2nc3ccc(NC(=O)c4ccc(C#N)cc4F)cc3n2)cc1Cl |  | inactive: 14.1% | 
32 | CCCCN(CC)C(=O)CSc1nc2n[nH]c(C)c2c(=N)n1-c1cccc(C)c1 |  | inactive: 5.62% | 
33 | CCOc1ccccc1NC(=O)C(CC(C)C)NC(=O)C1CCC(C)CC1 (stereo unspecified) |  | inactive: 0.731% | 
34 | COc1cccc2c1cc1c(=O)n(CC(=O)N3CCN(c4cccc(C(F)(F)F)c4)CC3)nc(C)n12 | inactive |  | 
35 | CCOc1ccc(NC2SC(=O)N(Cc3ccccc3)C2=O)cc1 (stereo unspecified) |  | inactive: -8.1% | 
36 | COc1cccc2sc(NC(=O)CS(=O)(=O)c3ccc(C)cc3)nc12 | inactive |  | 
37 | O=c1[nH]c(=O)n([C@H]2C[C@@H](O)[C@@H](CO)O2)cc1C(F)(F)F |  | inactive: -1.91% | 
38 | O=C(O)Cn1c(-c2cccs2)cc2cc(Cl)ccc21 |  | inactive: -9.39% | 
39 | O=C(Nc1cccc(C(F)(F)F)c1)c1cc(-c2ccc(Cl)s2)nc2ccccc12 |  | inactive: -13.8% | 
40 | O=C(Nc1cccs1)Nc1ccc(F)cc1F |  | inactive: 21.9% | 
41 | COc1cccc(COC(=O)c2ccc(-c3nnn(Cc4cccc(OC)c4)n3)cc2)c1 | inactive |  | 
42 | COc1ccc(Cn2c(CO)cnc2SCC(=O)Nc2ccc3c(c2)OCCO3)cc1 |  | inactive: 17.3% | 

Row | SMILES | outcome | activity change, negative = inhibition | Potency
43 | CC(=O)N1CCc2c(sc3c2c(=O)n(-c2ccc(F)cc2)c(=O)n3Cc2ccc(C#N)cc2)C1 |  | inactive: 1.84% | 
44 | CC1CCc2c(sc3nnn(Cc4cccc(C(=O)OC(C)C)c4)c(=O)c23)C1 (stereo unspecified) |  | inactive: -3.43% | 
45 | Cc1ccc(S(=O)(=O)n2nc(-c3ccc(Cl)cc3)nc2NCc2ccccc2)cc1 | inactive |  | 
46 | COCCn1ccc2c(OCC(=O)Nc3c(C)cc(C)cc3C)cccc2c1=O |  | inactive: 6.37% | 
47 | CCCSc1oc(-c2ccco2)nc1S(=O)(=O)c1ccc(Br)cc1 |  | inactive: -1.2% | 
48 | COCCCNC(=O)Cn1nc(N2CCN(c3ccccc3)CC2)ccc1=O |  | inactive: -12.6% | 
49 | Cn1c(-n2cccc2)c(-c2c(-c3ccc(F)cc3)[nH]c3c2c(=O)n(C)c(=O)n3C)c(=O)n(C)c1=O |  | inactive: 0.682% | 
50 | COc1ccc(-n2ccnc(NCc3cccs3)c2=O)cc1OC | inactive |  | 
51 | COc1ccc(CC(=O)Nc2cc(-c3cn4cccnc4n3)ccc2C)cc1OC |  | inactive: 5.2% | 
52 | CC1=C(c2ccc(C(C)C)cc2)S(=O)(=O)N=C1N1CCC(C(=O)NCc2ccccc2)CC1 |  | inactive: 1.91% | 
53 | CCOc1ccccc1CNC(=O)C1CCN(S(=O)(=O)c2c(C)noc2/C=C/c2ccccc2F)CC1 |  | inactive: 15.7% | 
54 | CCn1c(C(=O)NCc2ccccc2OC)cc2sccc21 |  | inactive: 6.74% | 
55 | COc1cccc(CNS(=O)(=O)c2cc(Br)cc3c2N(C(C)=O)C(C)C3)c1 (stereo unspecified) |  | inactive: -3.38% | 
56 | O=C(CSCc1cnn(-c2ccccc2)c1-n1cccc1)NCc1ccccc1F |  | inactive: 9.4% | 
57 | CCCN1CCN(c2ncnc3sc(C(=O)Nc4ccc(N(CC)CC)cc4C)c(C)c23)CC1 |  | inactive: -25.4% | 
58 | CCCOC(=O)C(C)n1nnc2sc(-c3ccccc3)cc2c1=O (stereo unspecified) | inactive |  | 
59 | Cc1ccn2c(Nc3ccc4c(c3)OCO4)c(-c3ccc(O)cc3)nc2c1 |  | inactive: -31.3% | 
60 | CCCCOc1ccc(S(=O)(=O)n2nc(C)c(S(=O)(=O)N3CCC(C)CC3)c2C)cc1 |  | inactive: 56.4% | 
61 | O=C(Nc1ccccc1)Nc1ccc(-c2ccc(C(=O)[C@H]3CCC[C@H]3C(=O)O)cc2)cc1 |  | inactive: -6.58% | 

Reference: PubChem BioAssay AID1963576 (National Center for Advancing Translational Sciences (NCATS), 2024)
